29 molecules from PubChem BioAssay AID1745853 (National Center for Advancing Translational Sciences (NCATS), 2022) can be followed below.

Values joined by “and” are separate entries in the source; they are usually repeats but may differ in a detail not shown here. Equal entries are not always repeated. The list shows a part of the results. These are further read-outs of the screen, such as a control signal, another cell line or another target. No call is given for them.

Experiment in all cases: Primary Screen for Target Class Profiling of Small Molecule Inhibitors of Methyltransferases
In assay [1] the target is Glycine N-methyltransferase (Homo sapiens) (UniProt Q14749). Conditions: purified enzyme, MTase-Glo SAH luminescence; measured here: GNMT inhibition; at 40 µM; stronger effect = lower value. A digest of the protocol: (§1)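 Each enzyme was assayed with SAM and its substrate. SAH formation detected by MTase-Glo luminescence; single-point 40 uM screen[…].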
Assay [2] has as its target Guanidinoacetate N-methyltransferase (Homo sapiens) (UniProt Q14353). Conditions: purified enzyme, MTase-Glo SAH luminescence; measured here: GAMT inhibition; at 40 µM; stronger effect = lower value. A digest of the protocol:
as §1

In assay [3] the target is Histamine N-methyltransferase (Homo sapiens) (UniProt P50135). Conditions: purified enzyme, MTase-Glo SAH luminescence; measured here: HNMT inhibition; at 40 µM; stronger effect = lower value. A digest of the protocol: as §1
In assay [4] the target is Nicotinamide N-methyltransferase (Homo sapiens) (UniProt P40261). Particulars: purified enzyme, MTase-Glo SAH luminescence; measured here: NNMT inhibition; at 40 µM; stronger effect = lower value. A digest of the protocol: as §1
The target in assay [5] is Phenylethanolamine N-methyltransferase (Homo sapiens) (UniProt P11086). Conditions: purified enzyme, MTase-Glo SAH luminescence; measured here: PNMT inhibition; at 40 µM; stronger effect = lower value. In a few lines:
as §1
On the % scale 0 is the no-effect control and ±100 the full control effect.

`CC(C)c1ccc(-c2nnc3n(Cc4ccccc4)c(=O)c4ccccc4n23)cc1`: the activity change, negative = inhibition in assay [1] was -8.17%; in assay [2], 0.969%; in assay [3] it was 1.35%; in assay [4] it was -8.21%; in assay [5], -3.95%.

`CC1(C(=O)NC2CCCC2)Cn2c(ccc2-c2ccccc2)C(=O)N1CCc1ccc(Cl)cc1` (stereo not drawn): the activity change, negative = inhibition in assay [1] was 1.25%; in assay [2] it was 0%; in assay [3], 3.17%; in assay [4], -5.89%; in assay [5] it was 1.28%.

As for `O=C(CCc1ccc2c(c1)CN(C(=O)C1CC1)CCO2)NC1CCS(=O)(=O)C1` (stereo not drawn), the activity change, negative = inhibition in assay [1] was 0.852%; in assay [2] it was 3.32%; in assay [3], -0.803%; in assay [4] it was -1.89%; in assay [5] it was 13.4%.

Regarding `COC(=O)C1=COC(O[C@@H]2O[C@H](CO)[C@@H](O)[C@H](O)[C@H]2O)[C@@H]2[C@@](C)(O)[C@@H](OC(=O)/C=C/c3ccccc3)C[C@]12O` (stereo partly drawn), the activity change, negative = inhibition in assay [1] was 4.99%; in assay [2], 6.77%; in assay [3], 12.1%; in assay [4], -6.85%; in assay [5] it was 7.1%.

Take `CNC(=O)c1ccccc1Nc1nc(Nc2ccc3c(c2OC)CCC[C@H](N2CCN(CCO)CC2)C3)ncc1Cl`: the activity change, negative = inhibition in assay [2] is 12.2% and 7.9%; in assay [4] it was -20.7% and -28.7%; in assay [5], -7.7% and -15.1%.

Consider `COCCC1(C(=O)O)CCCN(Cc2cn[nH]c2C2CCCCC2)C1` (stereo not drawn), for which the activity change, negative = inhibition in assay [1] was -1.34%; in assay [2], -4%; in assay [3], -0.509%; in assay [4] it was -4.02%; in assay [5], -2.03%.

In the case of `CCOc1ccccc1CN1C(=O)c2cc3oc(C)cc3n2CC1(C)C(=O)NC1CCCCCCC1` (stereo not drawn), the activity change, negative = inhibition in assay [1] is -1.22%; in assay [2] it was 3.47%; in assay [3], 7.63%; in assay [4], -1.93%; in assay [5], 1.93%.

On to `CC1(C(=O)NC2CCCCCCC2)Cn2c(cc3occc32)C(=O)N1CCc1ccccc1` (stereo not drawn), for which the activity change, negative = inhibition in assay [1] was -7.84%; in assay [2], 7.71%; in assay [3], -4.71%; in assay [4], -7.71%; in assay [5], -4.2%.

For the molecule `Cc1nc([C@@H]2CN(C(=O)CCc3c(C)noc3C)C[C@H]2C(N)=O)n[nH]1`, the activity change, negative = inhibition in assay [1] is -3.74%; in assay [2], -6.48%; in assay [3] it was -2.35%; in assay [4], -16%; in assay [5], -3.12%.

On to `Cc1ccc(N2C(=O)c3ccc(-c4ccco4)n3CC2(C)C(=O)NCc2ccc(Cl)cc2)cc1` (stereo not drawn), for which the activity change, negative = inhibition in assay [1] is -19.5%; in assay [2], 0.769%; in assay [3], -6.94%; in assay [4], -10.8%; in assay [5] it was -4.5%.

For `CC1(C(=O)NCc2ccccc2)Cn2nc(-c3ccccc3)cc2C(=O)N1CCC1=CCCCC1` (stereo not drawn), the activity change, negative = inhibition in assay [1] is 4.05%; in assay [2], 2.92%; in assay [3], 5.52%; in assay [4], 1.53%; in assay [5], -0.757%.

Consider `CCc1cncnc1N1CCN(Cc2nc3ccc(C(F)(F)F)cc3[nH]2)CC1`, for which the activity change, negative = inhibition is -13.5% and -4.21% in assay [1]; 1.74% and -3.46% in assay [2]; -4.42% and 1.94% in assay [3]; -27.7% and -48.3% in assay [4]; -25.7% and -36.3% in assay [5].

For `Cc1cc2[nH]c(=O)[nH]c2cc1S(=O)(=O)N1CCN(c2cccc(C)c2C)CC1`, the activity change, negative = inhibition in assay [1] is 8.69%; in assay [2], 1.39%; in assay [3] it was 6.58%; in assay [4] it was -5.85%; in assay [5], 4.57%.

On to `CCOC(=O)C1CCN(S(=O)(=O)c2cc3[nH]c(=O)[nH]c3cc2C)CC1`, for which the activity change, negative = inhibition in assay [1] was -4.31%; in assay [2], 3.11%; in assay [3], 1.62%; in assay [4], -3.82%; in assay [5] it was -7.72%.

As for `Oc1ccc(/C=C/c2ccc(/C=C/c3ccc(O)cc3)c(Br)c2)cc1`, the activity change, negative = inhibition in assay [1] is -18.6%; in assay [2], 1.57%; in assay [3] it was -9.54%; in assay [4] it was -11.4%; in assay [5], 0.253%.

For `CCc1cc2c(=O)c(-c3nc4ccccc4s3)coc2c(CN2CCCCC2)c1O`, the activity change, negative = inhibition in assay [1] is -6.77%; in assay [2] it was -7.93%; in assay [3], -0.842%; in assay [4], -19.1%; in assay [5], -3.93%.

In the case of `COc1ccccc1NC(=O)N1C[C@@H]2C[C@H](C1)c1c(/C=C/c3ccc(Cl)cc3)ccc(=O)n1C2`, the activity change, negative = inhibition in assay [1] is -4.59%; in assay [2], -9.7%; in assay [3] it was -2.57%; in assay [4], -11.8%; in assay [5], -6.99%.

Turning to `CC1(C(=O)NC2CCCCCCC2)Cn2c(cc3occc32)C(=O)N1CCCN1CCCC1` (stereo not drawn), the activity change, negative = inhibition was 2.69% in assay [1]; 3.73% in assay [2]; 2.63% in assay [3]; -0.055% in assay [4]; 0.413% in assay [5].

Turning to `COc1cccc(N2C(=O)NC(=NC3CCCCC3)C23CCCN(Cc2ccsc2)C3)c1` (stereo not drawn), the activity change, negative = inhibition is -12% in assay [1]; -1.6% in assay [2]; -11.2% in assay [3]; -31.7% in assay [4]; -7.17% in assay [5].

For `CC(C)CCNC(=O)C1(C)Cn2c(cc3ccccc32)C(=O)N1CCc1cccs1` (stereo not drawn), the activity change, negative = inhibition turned out to be 6.67% in assay [1]; 0% in assay [2]; 5.03% in assay [3]; 4.15% in assay [4]; 0.475% in assay [5].

Regarding `CC12CC34CC(O)C5C(CO)(CO)CC(=O)CC5(C)C3CC1C2C4` (stereo not drawn), the activity change, negative = inhibition in assay [1] was -0.374%; in assay [2], 5.65%; in assay [3], 7.92%; in assay [4] it was -15.4%; in assay [5], 1.55%.

Take `COC(=O)CC1CCN(C(=O)C2CC(=O)N(c3n[nH]c4cccc(F)c34)C2)CC1` (stereo not drawn): the activity change, negative = inhibition was -2.74% in assay [1]; 0.163% in assay [2]; 1.26% in assay [3]; 0.623% in assay [4]; 1.69% in assay [5].

Turning to `Cn1c(=O)c2ccc(C(=O)NC3CCCCC3)cc2n2c(=O)n(Cc3ccccc3Cl)nc12`, the activity change, negative = inhibition came out at 2.88% in assay [1]; 0% in assay [2]; 9.36% in assay [3]; 7.25% in assay [4]; 5.77% in assay [5].

Take `CCCC1CCC(c2ccc(C(=O)COC(=O)C(Cc3c[nH]c4ccccc34)NC(=O)c3ccc(Cl)cc3)cc2)CC1` (stereo not drawn): the activity change, negative = inhibition was -0.525% in assay [1]; 2.66% in assay [2]; -10.2% in assay [3]; -17.5% in assay [4]; -6.36% in assay [5].

Consider `C=CCn1cc(CN2CCC(Oc3ccc4ccccc4c3)(C(=O)O)CC2)cn1`, for which the activity change, negative = inhibition in assay [1] was -4.58%; in assay [2], 2.61%; in assay [3] it was 2%; in assay [4], 2.46%; in assay [5], 2.82%.

`Cn1c(=O)n(C)c2cc(S(=O)(=O)NCc3ccc(F)cc3)ccc21`: the activity change, negative = inhibition in assay [1] is 9.96%; in assay [2] it was 0%; in assay [3] it was 7.66%; in assay [4], -2.7%; in assay [5], 0.345%.

For `Cc1ccc(-c2cccc(CN3C4CCC3CN(C(C)C)C4)c2)c(C)c1`, the activity change, negative = inhibition in assay [1] is -2.67%; in assay [2], -0.647%; in assay [3] it was -13.4%; in assay [4], -6.07%; in assay [5], -3.13%.

On to `CC(C)Oc1ccc(CN2C(=O)c3cc4sccc4n3CC2(C)C(=O)NC2CCCCC2)cc1` (stereo not drawn), for which the activity change, negative = inhibition in assay [1] is -2.37%; in assay [2], 0%; in assay [3] it was 1.92%; in assay [4] it was 0.02%; in assay [5], 0.829%.

In the case of `COc1cc(Cl)c(NS(=O)(=O)c2ccc3c(c2)NC(=O)CC(=O)N3)c(OC)c1`, the activity change, negative = inhibition was -10.4% in assay [1]; 3.13% in assay [2]; -4.59% in assay [3]; -8.85% in assay [4]; -9.97% in assay [5].
